# Screen size: about 310,000 compounds; about 2,200 (0.71%) showed an effect of 50% or more. Effects have a minus sign here. Some of the results follow.
# Target: human ether-à-go-go-related gene (hERG) potassium channel (human, UniProt Q12809)
# Assay: primary screen, population patch clamp on CHO cells stably expressing hERG
# Chain of human ether-à-go-go-related gene (hERG) potassium channel (Q12809 whole entry, looked up): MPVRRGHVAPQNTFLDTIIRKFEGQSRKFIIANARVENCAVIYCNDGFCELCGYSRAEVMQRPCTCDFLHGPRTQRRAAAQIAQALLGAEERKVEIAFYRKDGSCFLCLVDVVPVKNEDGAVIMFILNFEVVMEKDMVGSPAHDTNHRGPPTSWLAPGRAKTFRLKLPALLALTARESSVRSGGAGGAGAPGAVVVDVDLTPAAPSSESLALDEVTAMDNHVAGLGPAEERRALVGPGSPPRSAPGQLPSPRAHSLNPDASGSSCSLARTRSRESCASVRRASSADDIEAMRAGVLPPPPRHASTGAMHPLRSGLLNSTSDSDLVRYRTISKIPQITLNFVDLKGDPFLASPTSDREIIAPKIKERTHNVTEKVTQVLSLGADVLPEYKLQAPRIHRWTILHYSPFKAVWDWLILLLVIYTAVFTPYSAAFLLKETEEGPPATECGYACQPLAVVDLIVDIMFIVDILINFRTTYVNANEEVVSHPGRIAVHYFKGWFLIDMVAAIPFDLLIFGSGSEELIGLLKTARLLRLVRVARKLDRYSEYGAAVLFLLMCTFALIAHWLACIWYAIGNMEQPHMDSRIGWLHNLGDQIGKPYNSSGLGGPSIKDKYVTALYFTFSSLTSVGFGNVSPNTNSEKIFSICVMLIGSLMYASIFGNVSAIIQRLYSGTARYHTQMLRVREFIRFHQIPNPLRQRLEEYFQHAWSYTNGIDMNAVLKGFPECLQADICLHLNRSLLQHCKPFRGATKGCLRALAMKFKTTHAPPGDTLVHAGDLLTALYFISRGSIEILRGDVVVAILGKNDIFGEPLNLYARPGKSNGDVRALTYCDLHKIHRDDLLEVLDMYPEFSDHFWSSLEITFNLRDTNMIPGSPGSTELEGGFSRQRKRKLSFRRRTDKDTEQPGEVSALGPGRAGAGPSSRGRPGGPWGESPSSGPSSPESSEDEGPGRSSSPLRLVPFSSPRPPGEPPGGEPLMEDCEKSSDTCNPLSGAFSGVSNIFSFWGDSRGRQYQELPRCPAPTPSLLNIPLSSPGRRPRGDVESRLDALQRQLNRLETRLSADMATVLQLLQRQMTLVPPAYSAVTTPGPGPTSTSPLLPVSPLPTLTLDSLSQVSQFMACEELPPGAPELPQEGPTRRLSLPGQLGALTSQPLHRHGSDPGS
row,Structure (SMILES),"hERG current change (%, negative = inhibition) at 1uM [%]"
1,COc1ccc(N(CC(=O)NC2CCCC2)C(=O)Cn2nnc(-c3ccc(OC)c(OC)c3)n2)c(OC)c1,7.63
2,CCCCSc1nc(O)c(C2OC(=O)c3c2ccc(OC)c3OC)c(=O)n1-c1ccccc1 (stereo not shown),10.8
3,CN(Cc1cccs1)C(=O)CSc1nnnn1C,2
4,CC(=O)Nc1cc(N2C(=O)CCC2=O)ccc1Cl,1.71
5,O=C(O)C1OC2OC3(CCCCC3)OC2C2OC3(CCCCC3)OC12 (stereo not shown),8.25
6,COc1ccc(CCNC(=O)CSc2ccc(NC(C)=O)cc2)cc1OC,12.5
7,COC(=O)C1=C(c2cc3ccccc3o2)C[C@@H]2CC[C@H]1N2C(=O)N1CCOCC1,5.15
8,Cc1cnn(CCC(=O)NNC(=S)Nc2cccc(Cl)c2)c1,-3.42
9,CCC(=O)NCCc1nc2cc(NC(=O)c3cccs3)ccc2n1C,2.65
10,O=C(CN(Cc1ccccc1)S(=O)(=O)c1ccccc1)N1CCOCC1,10.1
11,O=C(CCCC(=O)N(CC(=O)NC1CCCCC1)c1ccccc1F)Nc1ccccn1,8.81
12,O=C(NCCc1ccccc1)C1CCC(CNS(=O)(=O)c2ccc(F)cc2)CC1 (stereo not shown),12.7
13,CN(c1ccccc1)S(=O)(=O)c1ccc2[nH]c(=O)[nH]c2c1,8.92
14,CCOC(=O)c1[nH]c2ccccc2c1NC(=O)c1ccc(S(=O)(=O)N2CCCC2)cc1,3.8
15,COc1ccc(C2(CNC(=O)Cc3ccc(OC)c(OC)c3)CCOCC2)cc1,9.09
16,CCNC(=O)COc1cccc(C(=O)NCc2ccccc2)c1,5.5
17,Cc1cccc(C(=O)Nc2nnc(Cc3c[nH]c4ccccc34)s2)c1,16.6
18,O=C1C=C(NNC(=O)c2ccncc2)CC(c2ccccc2)C1 (stereo not shown),7.48
19,NNC(=O)c1ccc(CSc2nc3ccccc3[nH]2)cc1,4.42
20,Cc1cccc[n+]1CC(=O)c1ccccc1.[Br-],11.7
21,CCOC(=O)N1CCN(C(=O)c2cn(CC(C)C)c(=O)c3c2c2ccccc2n3C)CC1,3.4
22,O=C(c1ccccn1)N(Cc1ccco1)C1(C(=O)NC2CCCC2)CCCCC1,-8.64

row,Structure (SMILES),"hERG current change (%, negative = inhibition) at 1uM [%]"
1,CC#C[C@@H](CC)c1ccc2ccn(C)c2c1,13.3
2,Cc1cc(C)c(NC(=O)CSc2nc(=O)n(CCN3CCOCC3)c3c2CCCC3)c(C)c1,-1.33
3,COc1ccccc1Nc1cc(C(=O)NC2CCCC2)c2ccccc2n1,16.7
4,O=C(CCSCc1ccc(Cl)cc1)NCc1cccs1,-6.38
5,Cc1cc(C)c(NS(=O)(=O)c2ccc3c(c2)NC(=O)C(C)C(=O)N3)c(C)c1 (stereo not shown),9.35
6,Cc1cc(C)nc(NS(=O)(=O)c2ccc(NC(=O)CCC(=O)O)cc2)n1,14.8
7,Cc1ccc(C)c(S(=O)(=O)N2CCCOC2CNC(=O)C(=O)NCc2ccco2)c1 (stereo not shown),14.4
8,Nc1ccc(-c2nnc(-c3ccc(N)cc3)o2)cc1,6.67
9,O=C1/C(=C/c2ccc(O)cc2)SC(=S)N1CC1CCCO1 (stereo not shown),9.1
10,COCCNC(=O)c1ccc(CS(=O)(=O)c2ccccc2OC)o1,13.6
11,COc1ccc(NC(=O)Nc2cccs2)cn1,14.8
12,COc1ccc(CCNc2ccc(C(CC(N)=O)NC(=O)c3cc(OC)ccc3OC)cc2[N+](=O)[O-])cc1 (stereo not shown),11
13,O=[N+]([O-])c1ccc(CN2CCOCCOCCN(Cc3ccc([N+](=O)[O-])cc3)CCOCC2)cc1,-86.9
14,Cn1cc(CN2CCN(CC(C)(C)C)C(CCO)C2)c2ccccc21 (stereo not shown),8.72
15,CC(C)C1NC(C(=O)O)Cc2c1[nH]c1ccccc21 (stereo not shown),0.741
16,O=C(Nc1ccccc1N1CCOCC1)c1cccc(S(=O)(=O)N2CCOCC2)c1,-0.261
17,CCN1C[C@]2(CO)CC[C@H](OC)[C@@]34C5C[C@H]6[C@H](OC)C5[C@](O)(C[C@H]6OC)[C@@H](C(OC)C23)[C@@H]14 (stereo partly shown),5.45
18,Cc1nn(CC(=O)NCCc2ccco2)c(=O)c2nn(-c3ccccc3)c(C)c12,14.3
19,CCOc1cc(N2CCOCC2)c(OCC)cc1NC(=O)c1c(-c2ccccc2)noc1C,6.09
20,CCn1c(CC(=O)Nc2ccccc2)nnc1SCc1nc2ccccc2c(=O)[nH]1,-2.32
21,CC(Sc1c[nH]c2ccccc12)C(=O)O (stereo not shown),5.58
22,CCOc1cc(/C=C\c2nc(O)c([N+](=O)[O-])c(=O)[nH]2)ccc1OC(C)CC (stereo not shown),7.52

row,Structure (SMILES),"hERG current change (%, negative = inhibition) at 1uM [%]"
1,COc1ccc(CC(=O)Nc2nn(C)c3nc4c(C)cccc4cc23)cc1,3.6
2,O=C(Nc1ccc(F)cc1)Nc1csc2ccccc12,12.5
3,CCOc1ccc(OCC)c(NC(=O)CSc2nc3ccccc3c(=O)n2C)c1,9.9
4,COc1ccc(NC(=O)CN2CCN(CC(=O)Nc3ccc4c(c3)OCO4)CC2)cc1,-85.9
5,OC1(Cc2cc(-c3ccccc3)no2)CCN(CCCc2ccccc2)CC1,-55.5
6,COCCCNC(=O)C1CCN(c2ncccn2)CC1,6.35
7,CCCCOC(=O)Nc1cc(C(=O)OC)ccc1C(=O)OC,-3.25
8,CC(C)c1[nH]nc2c1C(Cc1ccccc1)C(C#N)=C(N)O2 (stereo not shown),9.6
9,CN(C)S(=O)(=O)c1ccc2c(c1)C(=NNC(N)=O)c1cc(S(=O)(=O)N(C)C)ccc1-2,12.2
10,Cc1nc(-c2ccc(NS(C)(=O)=O)cc2)cs1,1.45
11,CCNC(=O)COC(=O)C1CCN(S(=O)(=O)c2ccc3c(c2)OCCO3)CC1,11
12,NS(=O)(=O)c1cc([N+](=O)[O-])ccc1NCc1cccnc1,4.3
13,CSCCC(NC(=O)c1cccc(C)c1)C(=O)O (stereo not shown),21.2
14,O=C(Cc1cccs1)N(c1ccccc1)C1C=CS(=O)(=O)C1 (stereo not shown),13.2
15,Cc1ccccc1OCC(=O)N/N=C/c1ccc([N+](=O)[O-])o1,-0.362
16,Cc1cc(NC(=O)CCN2CCC(C)CC2)ccc1Br.Cl,-24.5
17,Nc1nc(NCCO)nc(NCc2ccccc2)c1[N+](=O)[O-],12.1
18,COc1ccc(C(=O)N=C2SC3CS(=O)(=O)CC3N2c2ccc(C(C)=O)cc2)cc1 (stereo not shown),4.54
19,Br.CN=c1nc(-c2ccccc2)n(-c2ccccc2)s1,6.86
20,O=C1NC(C(=O)O)=CC(c2ccc([N+](=O)[O-])cc2)N1 (stereo not shown),10.2
21,CC(C(=O)c1c[nH]c2ccccc12)N1CCN(C(=O)c2ccco2)CC1 (stereo not shown),6.03
22,O=C(/C=C/c1ccco1)NC(=S)Nc1cc(C(F)(F)F)ccc1N1CCOCC1,12.3

row,Structure (SMILES),"hERG current change (%, negative = inhibition) at 1uM [%]"
1,COc1ccc(NC(=O)COC(=O)C2CCN(S(=O)(=O)c3ccccc3)CC2)cc1Cl,-4.43
2,CCCCc1c(O)cc(C)[nH]c1=O,15.1
3,Cc1ccc(S(=O)(=O)CC(=O)N(CCCN2CCOCC2)c2nc3c(F)cccc3s2)cc1.Cl,5.91
4,O=C(CCNC(=O)c1ccco1)Nc1ccccc1N1CCOCC1,13.5
5,CCOC(=O)c1ccc(-c2n[nH]c(=O)c3ccccc23)cc1,7.02
6,CSc1nc(-c2ccccc2)nc2c1COC(C)(C)C2,10.1
7,CC1(C)C/C(=N\O)c2cc3c(nc2C1)CCCC3,8.13
8,CCCCN(CCCC)CC(O)CN1C(=O)NC(C)(C)C1=O (stereo not shown),1.38
9,CCOC(=O)[C@@H]1[C@H]2COc3cc(OC)ccc3[C@@H]2N2C(=O)N(c3ccc(C)cc3)C(=O)[C@@]12C,3.26
10,COC(=O)CCSCC(=O)Nc1ccc(S(=O)(=O)N2CCOCC2)cc1OC,9.95
11,CC(=O)/C(C#N)=C1\NC(=O)C(Cc2ccccc2)S1 (stereo not shown),18.9
12,O=C(c1ccc(NS(=O)(=O)c2cccc([N+](=O)[O-])c2)cc1)N1CCCCCC1,-1.26
13,Cc1ccc(S(=O)(=O)N2CCN(C(=O)c3ccc(-n4cncn4)c([N+](=O)[O-])c3)CC2)cc1,-19.5
14,COc1ccccc1CNC(=O)c1sccc1C,-0.149
15,O=C1/C(=C/c2ccc(C(=O)O)cc2)CCC/C1=C\c1ccc(C(=O)O)cc1,1.5
16,O=C(Nc1ccc(Cl)cc1)N1CCc2ccccc2C1,6.72
17,CCN(CC)c1ccc2c(C)cc(=O)oc2c1,10.9
18,O=C(COC(=O)c1ccccc1Br)NCCN1C(=O)CSC1=O,3.72
19,COc1ccc(CCNC(=O)CC(c2ccccc2)c2cc(C)ccc2O)cc1OC (stereo not shown),15.5
20,CCOC(=O)c1c(C)nc2ccccc2c1-c1ccccc1.Cl,-2.74
21,COc1ccc2oc(=O)c(-c3nc4ccccc4o3)cc2c1,8.38
22,Cl.Fc1ccccc1CCNCc1cccc(Cl)c1Cl,12.8
